The campaign covered roughly 150,000 compounds. About 540 (0.36%) showed an effect of 50% or more. Some of the results follow.
Test system: Plasmodium falciparum
Test: Primary screen in NF54 nanoGlo assay, in single point, at 2uM, 72h; a lower Z score goes with more inhibition
Assay type: functional, Erythrocyte
Details: timepoint 72 hour

First: CC[C@@H](CO)N(Cc1ccncc1)C(=O)c1nc2cc(C)ccn2c1F
Second: CCc1cnc(CN(C)C(=O)Nc2ccc(-n3cc(C)cn3)c(F)c2)s1
The “% Inhibition” value of the first is higher: -3% for the first, -10% for the second.

Compared with `Cc1cc(NC(=O)Cn2c(-c3ccccc3Cl)csc2=O)no1`, `Cc1nc(-c2c[nH]c(=O)c(Cl)c2)n(-c2ccccc2C(=O)O)n1` is lower in “% Inhibition” value: -1% for the first, -3% for the second.

First: N#Cc1cc(F)c(F)cc1Br
Second: O=C(NC1(c2c(F)cccc2F)COC1)[C@H]1C[C@@H]1c1ccncc1
The “% Inhibition” value of the first is higher: 14% for the first, 3% for the second.

Going from `CCn1ccnc1CN[C@H](C(=O)OC)C1CC1` to `CC(C)c1cc(C(=O)N2C(C(=O)O)CC[C@H]2c2ccccc2)no1` (stereo partly specified), the “% Inhibition” value falls from 1% to -2%.

Going from `Cc1cc(C)n2ncc(CN3CCO[C@H](c4cccnc4)C3)c2n1` to `Cc1cc(C)n(-c2ccc(CN3CCCc4ccc(S(N)(=O)=O)cc43)cc2)n1`, the “% Inhibition” value falls from 3% to -14%.

First: CNC(=O)c1ccc(OC)c(CCc2c(C)n[nH]c2C)c1
Second: COc1ccc(OC)c(CN[C@H]2CC[C@@H](n3cc(C(=O)NC4CC4)nn3)CC2)c1
The “% Inhibition” value of the first is lower: -12% for the first, -6% for the second.

First: Cc1c(C(=O)N2C3COCC2C3)sc2ncc(C(=O)N3C4COCC3C4)cc12
Second: O=C(NC(C1CC1)C1CC1)c1ccc2c(=O)n3c(nc2c1)CCCCCC3
The “% Inhibition” value of the first is higher: -1% for the first, -12% for the second.

First: CC(C)(C)OC(=O)N[C@@H](CC(=O)O)C1CCOCC1
Second: Cc1ccc(-c2cn[nH]c2[C@H]2CCCN(C(=O)C(=O)CC(C)C)C2)cc1
The “% Inhibition” value of the first is higher: 2% for the first, -9% for the second.

First: O=C(NCC1(c2ccccc2)CC1)N1CCC(N2CCCCC2)CC1
Second: O=C(Nc1ccc(F)cc1F)N1CCCN(c2nc3cc(F)ccc3n3cccc23)CC1
The “% Inhibition” value of the first is lower: -4% for the first, 10% for the second.

First: CCC#CCN1CCC=C([C@H](CC(C)C)NC(C)=O)C1
Second: COCC(C)CS(=O)(=O)N1CCC[C@H]1CCc1ccccn1 (stereo partly specified)
The “% Inhibition” value of the first is lower: -9% for the first, -6% for the second.

First: c1ccc(-c2nc(-c3cnccn3)n[nH]2)nc1
Second: COc1cccc(C2CC(C)CN2c2ccc3nncn3n2)c1 (stereo unspecified)
The “% Inhibition” value of the first is higher: 4% for the first, 1% for the second.

`CCc1nc(-c2cc(S(=O)(=O)Nc3cccc(Cl)c3C)c(C)s2)cs1` was tested, and the “% Inhibition” value was 1%.

Going from `CC[C@@H](CO)N(Cc1ccncc1)C(=O)c1nc2cc(C)ccn2c1F` to `CCc1cnc(CN(C)C(=O)Nc2ccc(-n3cc(C)cn3)c(F)c2)s1`, the Z score rises from 0.49 to 1.37.

First: Cc1cc(NC(=O)Cn2c(-c3ccccc3Cl)csc2=O)no1
Second: Cc1nc(-c2c[nH]c(=O)c(Cl)c2)n(-c2ccccc2C(=O)O)n1
The Z score of the first is lower: 0.07 for the first, 0.45 for the second.

First: N#Cc1cc(F)c(F)cc1Br
Second: O=C(NC1(c2c(F)cccc2F)COC1)[C@H]1C[C@@H]1c1ccncc1
The Z score of the first is lower: -1.64 for the first, -0.43 for the second.

First: CCn1ccnc1CN[C@H](C(=O)OC)C1CC1
Second: CC(C)c1cc(C(=O)N2C(C(=O)O)CC[C@H]2c2ccccc2)no1 (stereo partly specified)
The Z score of the first is lower: -0.13 for the first, 0.48 for the second.

Compared with `Cc1cc(C)n2ncc(CN3CCO[C@H](c4cccnc4)C3)c2n1`, `Cc1cc(C)n(-c2ccc(CN3CCCc4ccc(S(N)(=O)=O)cc43)cc2)n1` is higher in Z score: -0.6 for the first, 2.55 for the second.

Compared with `CNC(=O)c1ccc(OC)c(CCc2c(C)n[nH]c2C)c1`, `COc1ccc(OC)c(CN[C@H]2CC[C@@H](n3cc(C(=O)NC4CC4)nn3)CC2)c1` is lower in Z score: 1.48 for the first, 0.74 for the second.

Going from `Cc1c(C(=O)N2C3COCC2C3)sc2ncc(C(=O)N3C4COCC3C4)cc12` to `O=C(NC(C1CC1)C1CC1)c1ccc2c(=O)n3c(nc2c1)CCCCCC3`, the Z score rises from 0.12 to 1.17.

First: CC(C)(C)OC(=O)N[C@@H](CC(=O)O)C1CCOCC1
Second: Cc1ccc(-c2cn[nH]c2[C@H]2CCCN(C(=O)C(=O)CC(C)C)C2)cc1
The Z score of the first is lower: -0.23 for the first, 1.66 for the second.

First: O=C(NCC1(c2ccccc2)CC1)N1CCC(N2CCCCC2)CC1
Second: O=C(Nc1ccc(F)cc1F)N1CCCN(c2nc3cc(F)ccc3n3cccc23)CC1
The Z score of the first is higher: 0.55 for the first, -1.73 for the second.

Compared with `CCC#CCN1CCC=C([C@H](CC(C)C)NC(C)=O)C1`, `COCC(C)CS(=O)(=O)N1CCC[C@H]1CCc1ccccn1` (stereo partly specified) is lower in Z score: 1.21 for the first, 1.02 for the second.

Going from `c1ccc(-c2nc(-c3cnccn3)n[nH]2)nc1` to `COc1cccc(C2CC(C)CN2c2ccc3nncn3n2)c1` (stereo unspecified), the Z score rises from -0.38 to -0.08.

With `CCc1nc(-c2cc(S(=O)(=O)Nc3cccc(Cl)c3C)c(C)s2)cs1` the Z score was -0.07.
